Measurements from PubChem BioAssay AID1508642 (National Center for Advancing Translational Sciences (NCATS), 2021).
In all, about 43,000 compounds went through this assay and about 200 (0.47%) were called active. Not shown: some 12% with an inconclusive outcome. The call rests on the fitted dose curve; in most records, active means well fitted cell-killing curve with a large enough effect; inconclusive means small, poorly fitted or top-dose-only effect, or effect the other way; inactive means flat fitted curve, though single readings scatter. The list shows a part of the results.
On the % scale 0 is the no-effect control and ±100 the full control effect; potency means the concentration at half of the fitted maximal effect.

Experiment: Cell viability qHTS assay in S16 Pmp22-F2sN cells; further: nearly all actives have a fitted effect of over 65% in size
Settings: S16 Pmp22-F2sN Schwann cells (luciferase reporters placed in the Pmp22 gene) viability, CellTiter-Glo, 24 h; series mostly up to 57.5 µM; activity change, negative = cytotoxicity: at the top concentration
Procedure, shortened: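 Rat S16 Schwann reporter line, 24 h treatment with library compounds delivered at 23 nL per well. Cell viability by CellTiter-Glo luminescence.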
With `CCN(CC)C(=O)Cn1ncc2c([nH]c3ccc(C)cc32)c1=O` the “activity change, negative = cytotoxicity” value was inactive: 6.9%. With `COc1ccc(NC(=O)c2ccc3c(c2)N(Cc2cccc(Cl)c2)C(=O)c2ccccc2S3(=O)=O)cc1Cl` the “activity change, negative = cytotoxicity” value was inactive: -0.205%. With `COc1ccccc1-c1noc(-c2ccc(NCc3ccccc3)c([N+](=O)[O-])c2)n1` the “activity change, negative = cytotoxicity” value was inactive: 9.61%. With `Cc1cc2nc(NC(=O)c3ccc(S(=O)(=O)N4CCOCC4)cc3)sc2cc1C` the “activity change, negative = cytotoxicity” value was inactive: 2.56%. For `Cc1ccc(C)c(NC(=O)CCc2nc3cccnc3n2Cc2cccs2)c1`, the “activity change, negative = cytotoxicity” value was inactive: -2.51%. With `CCN(CC)C(=O)CSc1nc(-c2ccccc2)cc(-c2ccc(OC)cc2)c1C#N` the “activity change, negative = cytotoxicity” value was inactive: 0.0396%. With `COc1cccc(NC(=O)Cn2c(=O)n(-c3ccccc3)c(=O)c3c4c(sc32)CCCC4)c1` the “activity change, negative = cytotoxicity” value was inactive: -5.79%. With `Cc1ccccc1-c1ccnc2c(-c3ccc(F)cc3)c(C)nn12` the “activity change, negative = cytotoxicity” value was inactive: 7.04%. With `Cc1ccc(-c2cc(N)n(Cc3cccc(Cl)c3)n2)cc1` the “activity change, negative = cytotoxicity” value was inactive: -8.59%. For `CCOC(=O)c1sc2ccccc2c1S(=O)(=O)N1CCN(c2ccccc2F)CC1`, the “activity change, negative = cytotoxicity” value was inactive: -15.7%. For `COc1cc(OC)c(NC(=O)Cn2nc(C)n3cccc3c2=O)cc1Cl`, the “activity change, negative = cytotoxicity” value was inactive: 7.78%. For `CCC(=O)N1CCc2cc(S(=O)(=O)N3CCN(c4ccccc4F)CC3)ccc21`, the “activity change, negative = cytotoxicity” value was inactive: -1.01%. With `CC1=C(c2cccc(Cl)c2)S(=O)(=O)NC1=NCc1ccccc1C` the “activity change, negative = cytotoxicity” value was inactive: 4.9%. In the case of `COc1ccc(C)cc1NC(=O)CN1C(=O)CSc2ccc(S(=O)(=O)N3CCCC3)cc21`, the “activity change, negative = cytotoxicity” value was inactive: 11.3%. For `CCOc1ccc(NC(=O)Nc2cccc(C)n2)cc1`, the “activity change, negative = cytotoxicity” value was inactive: 8.3%. With `Cc1ccc(-n2nc3c(N4CCC(C(=O)NCCc5ccccc5)CC4)nnc(C)c3c2C)cc1` the Potency was active: 28.2 µM. For `COc1ccc(C)cc1NC(=O)CN(C)S(=O)(=O)c1ccc2c(c1)CCCN2C(C)=O`, the “activity change, negative = cytotoxicity” value was inactive: -0.363%. For `COCCCN1CN=C(NS(=O)(=O)c2ccc(NC(C)=O)cc2)NC1`, the “activity change, negative = cytotoxicity” value was inactive: 14.1%. With `CCN(CC)S(=O)(=O)c1ccc2c(c1)c(=O)c(C(=O)NCCc1ccc(OC)c(OC)c1)cn2C` the “activity change, negative = cytotoxicity” value was inactive: 4.87%. For `COC(=O)CNC(c1ccccc1)c1cc(Br)ccc1NC(=O)c1ccc(Cl)cc1` (stereo not given), the “activity change, negative = cytotoxicity” value was inactive: 7.19%. With `Cc1nc2ccn(Cc3ccccc3)c(=O)c2cc1C(=O)Nc1ccc(F)cc1Cl` the “activity change, negative = cytotoxicity” value was inactive: -2.34%. For `COc1cccc(CN(C(=O)c2oc3ccc(Br)cc3c2C)C2CCS(=O)(=O)C2)c1` (stereo not given), the “activity change, negative = cytotoxicity” value was inactive: 0.127%. With `CC(C)c1ccc(NC(=O)c2ccc3c(c2)CCCN3S(C)(=O)=O)cc1` the “activity change, negative = cytotoxicity” value was inactive: -6.93%. In the case of `O=C(Nc1ccc2c(c1)CCCN2C(=O)c1cccs1)c1c(F)cccc1F`, the “activity change, negative = cytotoxicity” value was inactive: -2.81%. With `Cc1ccc(N2CC(NC(=O)c3ccc(S(=O)(=O)N4CCCC4)cc3)CC2=O)cc1` (stereo not given) the “activity change, negative = cytotoxicity” value was inactive: -3.48%. In the case of `COc1ccc(-c2c(C)c3cc(OC(=O)N4CCOCC4)ccc3oc2=O)cc1`, the “activity change, negative = cytotoxicity” value was inactive: -5.41%. For `CCOc1ccccc1NC(=O)Cn1c(=O)n(CCCC(=O)NCCc2ccc(C)cc2)c(=O)c2ccccc21`, the “activity change, negative = cytotoxicity” value was inactive: -7.27%. In the case of `CCc1ccc(CNC(=O)CN(c2ccc(C)cc2)S(=O)(=O)N(C)C)cc1`, the “activity change, negative = cytotoxicity” value was inactive: -0.622%. With `COc1ccc(OC)c(CCNC(=O)C2CCN(c3ncnc4c3nc3n4CCCCC3)CC2)c1` the “activity change, negative = cytotoxicity” value was inactive: -3.03%. In the case of `CSc1ccc(CNC(=O)C2CCN(c3nnc(-n4cccc4CNc4ccc(C)cc4)s3)CC2)cc1`, the “activity change, negative = cytotoxicity” value was inactive: -15%. For `N#Cc1c(-n2ncnc2-c2ccc(Br)cc2)sc2c1CCCCC2`, the “activity change, negative = cytotoxicity” value was inactive: 13.1%. For `O=C(Cn1cc(SCc2ccccc2)c2ccccc21)N1CCCCC1`, the “activity change, negative = cytotoxicity” value was inactive: -1.99%. For `COc1ccc(-c2nc(C)c(CCNC(=O)C(=O)Nc3c(C)cccc3C)s2)cc1OC`, the “activity change, negative = cytotoxicity” value was inactive: 23%. With `Oc1c(C(c2ccccc2F)N2CCCCC2)sc2nc(-c3ccco3)nn12` (stereo not given) the “activity change, negative = cytotoxicity” value was inactive: 4.12%. For `CC(=O)c1cccc(NC(=O)CSc2nc(=O)n(Cc3cccnc3)c3c2CCC3)c1`, the “activity change, negative = cytotoxicity” value was inactive: 1.75%. For `Nc1cc(=O)nc(SCC(=O)Nc2ccc(F)cc2)n1-c1ccccc1Cl`, the “activity change, negative = cytotoxicity” value was inactive: -4.08%. For `COc1ccc(C)cc1NC(=O)C1CCN(S(=O)(=O)c2ccc3[nH]c4c(c3c2)CCCCC4)CC1`, the “activity change, negative = cytotoxicity” value was inactive: -0.527%. For `O=C(COc1ccc([N+](=O)[O-])cc1)NCC1(N2CCOCC2)CCCCC1`, the “activity change, negative = cytotoxicity” value was inactive: 10.4%. With `Cc1ccccc1Nc1c(-c2ccc(Cl)s2)nc2c(C)cccn12` the “activity change, negative = cytotoxicity” value was inactive: -4.6%. For `COc1ccc(-n2ncc(C(=O)N3CCN(c4ncccn4)CC3)c2C2CCN(C(=O)OC(C)(C)C)CC2)cc1`, the “activity change, negative = cytotoxicity” value was inactive: 7.1%. With `CC(C)CC(=O)Nc1ccc(S(=O)(=O)Nc2cc3c(cc2N2CCOCC2)n(C)c(=O)c(=O)n3C)cc1` the “activity change, negative = cytotoxicity” value was inactive: 7.29%. With `O=C(CCc1cn(Cc2ccccc2Cl)c2ccccc12)NC1CCCCC1` the “activity change, negative = cytotoxicity” value was inactive: -14.6%. For `Cc1c(C(=O)N2CCC(C)CC2)c(S(=O)(=O)NCc2ccc(Br)cc2)c(C)n1C`, the “activity change, negative = cytotoxicity” value was inactive: 2.31%. With `CCCCc1nc2ccccc2n2c(-c3ccc(OC)cc3)c3c(=O)n(C)c(=O)n(C)c3c12` the “activity change, negative = cytotoxicity” value was inactive: -0.294%. In the case of `COc1cc2c(cc1OC)C(COc1ccc(F)cc1)N(C(=O)c1ccc(S(=O)(=O)N3CCCC3)cc1)CC2` (stereo not given), the “activity change, negative = cytotoxicity” value was inactive: 1.2%. For `COc1cc(C2CC(=O)N(Cc3ccc(F)cc3)c3ccccc3S2)cc(OC)c1OC` (stereo not given), the “activity change, negative = cytotoxicity” value was inactive: -22.2%. In the case of `COC(=O)c1cc(NC(=O)[C@H](CCS(C)(=O)=O)N2Cc3ccccc3C2=O)cc(C(=O)OC)c1`, the “activity change, negative = cytotoxicity” value was inactive: 7.99%. In the case of `CCc1ccc(-c2nc3cc(NC(=O)c4cc5ccccc5cc4OC)ccc3o2)cc1`, the “activity change, negative = cytotoxicity” value was inactive: 6.54%. In the case of `CCc1cc(C(=O)NC(C)c2ccccc2)no1` (stereo not given), the “activity change, negative = cytotoxicity” value was inactive: -3.85%. In the case of `Cc1cccc(NC(=O)c2c(C)cc(C)nc2SCC(=O)Nc2c(C)cc(C)cc2C)c1`, the “activity change, negative = cytotoxicity” value was inactive: -11.7%. With `CC(=O)Nc1ccc(NC(=O)c2ccc(COc3ccc(Cl)cc3Cl)o2)cc1` the “activity change, negative = cytotoxicity” value was inactive: -2.2%. In the case of `CCOc1ccc(-c2cc(-c3nc(-c4cc(OC)c(OC)c(OC)c4)no3)[nH]n2)cc1Cl`, the “activity change, negative = cytotoxicity” value was inactive: 15.4%. With `Cc1ccc(-n2nc(CO)c(C(=O)NCc3cccs3)n2)cc1C` the “activity change, negative = cytotoxicity” value was inactive: -8.87%. With `COC(=O)c1ccccc1NC(=O)c1ccc2nc(Cc3ccccc3)oc2c1` the “activity change, negative = cytotoxicity” value was inactive: 2.66%. With `CCOC(=O)c1ccc(NC(=O)CSc2nnc(CNC(=O)c3ccc(OC)cc3)n2CC)cc1` the “activity change, negative = cytotoxicity” value was inactive: 12.8%. With `Cn1c(=O)oc2cc(S(=O)(=O)N3CCC(C(=O)NCc4ccc(F)cc4)CC3)ccc21` the “activity change, negative = cytotoxicity” value was inactive: 0.473%. In the case of `COc1ccc(Nc2nc3cc(Cl)c(Cl)cc3n3cnnc23)cc1Cl`, the “activity change, negative = cytotoxicity” value was inactive: -5.31%. In the case of `O=C(Nc1nnc(S(=O)(=O)N2CCCC2)s1)c1ccccc1Br`, the “activity change, negative = cytotoxicity” value was inactive: -8.39%. In the case of `COc1cc(N2C(=O)CSC23C(=O)N(Cc2ccc(C)cc2)c2ccccc23)cc(OC)c1OC` (stereo not given), the “activity change, negative = cytotoxicity” value was inactive: -4.71%. With `Cc1ccc2c(c1)N(C(=O)CCC(=O)NCc1cccs1)CCO2` the “activity change, negative = cytotoxicity” value was inactive: 2.11%.
